For 108 molecules, z-score results are on record in PubChem BioAssay AID488969 (Vanderbilt High Throughput Screening Facility, 2010).

Over roughly 110,000 compounds, “z-score” has its median near -0.1; the highest 2% begin near 2. The list shows a part of the results. The source made the active and inactive calls.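 How the source made its calls: active means z-score in the third read window above 3 or below -3; inactive means the rest.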

The assay addresses Metabotropic glutamate receptor 8 (Rattus norvegicus) (UniProt P70579). Description: rat mGluR8 modulators via GIRK flux, primary screen, cell-based, thallium flux, HTS (AID 488969). The conditions noted are these: HEK293 rat mGluR8, GIRK (G protein-gated inwardly rectifying potassium channel) thallium flux, FluoZin2; at 10 µM; stronger effect = higher value; submaximal glutamate (EC20) added with thallium.
Chain of UniProt P70579 (P70579 whole entry, looked up): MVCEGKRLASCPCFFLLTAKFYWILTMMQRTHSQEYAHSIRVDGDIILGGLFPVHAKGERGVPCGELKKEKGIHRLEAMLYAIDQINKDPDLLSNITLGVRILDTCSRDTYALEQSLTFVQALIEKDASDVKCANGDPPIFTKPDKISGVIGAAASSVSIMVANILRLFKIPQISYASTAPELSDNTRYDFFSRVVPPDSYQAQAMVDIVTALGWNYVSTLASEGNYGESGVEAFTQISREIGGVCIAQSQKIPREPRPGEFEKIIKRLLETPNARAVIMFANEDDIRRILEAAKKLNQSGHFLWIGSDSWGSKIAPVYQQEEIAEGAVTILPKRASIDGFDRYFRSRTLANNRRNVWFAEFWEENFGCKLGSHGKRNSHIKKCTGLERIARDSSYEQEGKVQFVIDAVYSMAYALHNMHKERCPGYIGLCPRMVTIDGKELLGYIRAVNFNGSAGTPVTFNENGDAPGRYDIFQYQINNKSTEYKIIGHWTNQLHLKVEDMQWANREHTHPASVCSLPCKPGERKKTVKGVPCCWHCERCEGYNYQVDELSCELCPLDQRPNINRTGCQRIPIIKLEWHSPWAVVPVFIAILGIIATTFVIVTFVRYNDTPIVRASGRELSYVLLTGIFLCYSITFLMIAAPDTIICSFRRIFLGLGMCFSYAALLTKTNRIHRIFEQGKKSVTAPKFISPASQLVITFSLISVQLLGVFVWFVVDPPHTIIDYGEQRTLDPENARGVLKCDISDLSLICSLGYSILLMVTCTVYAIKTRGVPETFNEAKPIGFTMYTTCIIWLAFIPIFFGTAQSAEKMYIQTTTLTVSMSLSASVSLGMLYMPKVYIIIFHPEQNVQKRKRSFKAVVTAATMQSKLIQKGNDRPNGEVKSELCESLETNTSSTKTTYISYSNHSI
Turning to `Cn1nc(N)c2c(-c3ccc(Cl)cc3)c(C#N)c(N)nc21`, the z-score came to 0.0615.
Under `CCOc1c(Cl)cc(C(=O)Nc2ccccc2-c2ccccc2)cc1Cl` stands -0.121.
Under `CCN1CCc2c(sc(NC(=S)NC(=O)c3ccccc3)c2C#N)C1` stands -0.118; under `Cn1c(=O)oc2cc(S(=O)(=O)N3CCCC(C(=O)N4CC=C(c5ccccc5)CC4)C3)ccc21` (stereo not drawn), 1.18.
`Cc1nn(Cc2ccc(C(=O)Nc3nc4c(C)cccc4s3)o2)c(C)c1Br` showed a z-score of -0.909.
The value for `COC(=O)c1ccc(C)c(NC(=O)c2c(-c3ccccc3)noc2C)c1` was -0.204; that for `COc1ccc(S(=O)(=O)N(CCc2ccccc2)CC(=O)N/N=C/c2ccc3c(c2)OCO3)cc1` was -0.0021.
Consider `Cc1ccc(NC(=O)c2cc(NC(=O)CCCC(=O)O)ccc2Cl)cc1Cl`, for which the z-score is -0.197.
The value for `CCn1c(SCC(=O)C(C)(C)C)nnc1-c1ccccc1OC` was -0.11; that for `COc1ccc(N2CCN(C(CNC(=O)C3CCCCC3)c3cccnc3)CC2)cc1` (stereo not drawn) was -0.423; that for `CC(C)CNC(=O)c1ccccc1NC(=O)CCSc1ccccc1` was -0.204.
The value for `Cc1ccc(C)c(OCC(=O)N2CCOCC2)c1` was 0.369.
Under `Cc1noc(C)c1S(=O)(=O)N1CCCCC1` stands -0.647.
Regarding `O=C(C1Cc2ccccc2CN1S(=O)(=O)c1ccc(F)cc1)N1CCCCC1` (stereo not drawn), the z-score is -0.0244.
Under `O=c1c2cnn(-c3ccc(F)cc3)c2ncn1Cc1ccccn1` stands -0.33; under `Cc1ccc(C(=O)n2nc(-c3ccco3)nc2N)cc1`, -0.149; under `CCn1c(=O)cc(SCC(=O)Nc2cc(OC)c(OC)c(OC)c2)c2ccccc21`, -0.48.
The value for `CCn1cc([N+](=O)[O-])c(C(=O)Nc2ccn(Cc3ccccc3)n2)n1` was -0.269.
Under `Cc1ccc(C2=[N+]([O-])C3(CCCCC3=O)N(O)C2(C)C)cc1` (stereo not drawn) stands 0.0871; under `Cc1ccc(-c2nnn(CC(=O)N(Cc3ccco3)C(C(=O)NC3CCCC3)c3cccs3)n2)o1` (stereo not drawn), -0.195.
In the case of `COCc1cc(=O)[nH]c(/N=C(\N)Nc2cccc(C)c2)n1`, the z-score is -0.000236.
The value for `CCc1ccc(/C(C)=N\Nc2ccc([N+](=O)[O-])cc2)cc1` was -0.239; that for `O=C(NCN1C(=O)C2C3C=CC(C3)C2C1=O)OC1CCCCC1` (stereo not drawn) was -0.093.
As to `COC(=O)C1=C(CSCc2ccccc2)NC(=O)NC1c1cc(C)ccc1C` (stereo not drawn), the z-score is -1.82.
In turn, `COc1ccc(C(C)NC(=O)c2ccc(Br)cc2)cc1OC` (stereo not drawn) came in with a z-score of -0.247.
Under `Cc1ccc(S(=O)(=O)NC(=O)NCCCCNC(=O)NS(=O)(=O)c2ccc(C)cc2)cc1` stands -0.183; under `CN(C(=O)c1cccc(C#N)c1)c1nnc(-c2ccccn2)s1`, 0.436.
Under `C/C(=N/OCC(=O)Nc1ccc(C)cc1C)c1cccs1` stands -0.599; under `O=c1[nH][nH]c(-c2ccccc2O)c1C(C[N+](=O)[O-])c1cccc(Cl)c1` (stereo not drawn), 0.016; under `CC(C)c1ccc2c(c1)C1Cc3ccccc3C1N2` (stereo not drawn), -0.22.
Regarding `Cc1cc(=O)n2nc(-c3ccc(C(F)(F)F)cc3)sc2n1`, the z-score is -0.211.
Under `C=CCNC(=O)C1CC(=O)N(c2ccc(OCC(=O)Nc3ccc(OC)cc3)cc2)C1` (stereo not drawn) stands -0.466.
Under `CCOc1ccc(NC(=O)N(CCN2CCOCC2)Cc2ccc3c(c2)CCCN3CC)cc1` stands -0.435; under `CCOc1ccc(S(=O)(=O)Nc2ccccn2)c2ccccc12`, -0.297; under `CN(Cc1ccccc1)C(=O)c1cc2ccccc2o1`, -0.372.
With `O=C(Cn1ncc2c1-c1ccccc1OC2)N1CCc2ccccc21`, the z-score was 0.541.
For the molecule `Cn1c(=O)c2c(SCc3ccccn3)nc(CC(C)(C)C)nc2n(C)c1=O`, the z-score is -0.691.
Under `NC(=O)Cn1c(=O)oc2ccccc21` stands -0.209.
The value for `COc1cccc(/C=N/n2c(-c3ccco3)nc3ccccc3c2=O)c1` was 0.151; that for `O=C(NCCN1C(=O)S/C(=C\c2ccc(OC(F)F)cc2)C1=O)[C@@H]1CCCN1C(=O)c1cccs1` was -0.589; that for `O=C(CS(=O)(=O)Cc1ccccc1)Nc1ccc(S(=O)(=O)N2CCCCCC2)cc1` was 0.185.
Under `CCN(CC)S(=O)(=O)c1ccc(NC(=O)c2ccc(CN3CCOCC3)cc2)cc1` stands -0.269; under `COc1ccc2[nH]c(=O)c(COC(=O)c3ccco3)cc2c1`, -0.171; under `CC(C)C[C@H](NC(=O)OC(C)(C)C)C(=O)N1CCC(C(=O)N[C@@H](Cc2ccccc2)C(=O)O)CC1`, 0.348.
`COC(=O)c1cc(NC(=O)CC2C(=O)NCCN2C(=O)c2ccccc2)cc(C(=O)OC)c1` (stereo not drawn) registered a z-score of 0.0785.
`CC1(C)Nc2ccc(O)cc2-c2c1ssc2=S`: the z-score is -0.0445.
The value for `COc1ccc(C(=O)Nc2cccc3c2C(=O)NC3=O)cc1S(=O)(=O)N1CCOCC1` was -0.063; that for `O=C(NN=C1CCCCC1)NC1CCCCC1` was 0.05.
The value for `Cc1csc(NC(=O)CSc2nnc(-c3ccc(S(=O)(=O)N4CCCC4)cc3)o2)n1` was -0.38.
Under `NC(=O)COC(=O)c1ccc(Cl)c(S(=O)(=O)N(Cc2ccccc2)c2ccc(Cl)cc2)c1` stands -0.251.
`CCCc1cc(=O)oc2cc(OCC(=O)Nc3ccc4c(c3)OCCO4)ccc12` came in with a z-score of -0.0823.
`COc1ccc(C(=O)Cn2nnc(-c3ccccc3F)n2)cc1`: the z-score is -0.251.
Under `CCOC(=O)C(CC)n1cnc2c(nnn2-c2ccc(OC)cc2)c1=O` (stereo not drawn) stands active: 4.43; under `CC(C)C(NS(=O)(=O)c1ccc2c(c1)OCCCO2)C(=O)O` (stereo not drawn), -0.152; under `CCOC(=O)c1c(NC(=O)c2nn(CC)cc2Br)c(C#N)cn1-c1ccccc1`, -1.86.
Under `N#CCCN(C(=O)Nc1ccccc1)c1ccccc1` stands -0.0757; under `CCS(=O)(=O)n1nc(-c2ccc(OC)cc2)nc1SC`, -0.342; under `Cc1ccc(S(=O)(=O)Cc2c(C)noc2C)cc1`, -0.0187.
The value for `CCCOc1cccc(OCCSc2nc(C)cc(=O)[nH]2)c1` was active: -3.02.
For the molecule `COc1ccccc1C(=O)NC1CCCCCCC1`, the z-score is -0.217.
Under `CCc1cccc(NC(=O)Cn2cc3c(n2)CCCC3)c1` stands 0.22; under `Cc1ccc(C(c2nnnn2CCc2ccccc2)N2CCSCC2)cc1` (stereo not drawn), -0.216.
Molecule `COc1ccc2nc(NC(=O)CSc3nc(SC)ns3)sc2c1` yielded a z-score of 0.0066.
As to `CC1=C(C)CC(C(=O)NNC(=O)c2csc(C)c2C)C(C(=O)O)C1` (stereo not drawn), the z-score was 0.192.
Under `CN1CCN(c2ncnc3c2sc2nc(N4CCOCC4)c4c(c23)CCC4)CC1` stands -0.0846.
Under `COc1ccccc1C(=O)NCCCNc1ccc([N+](=O)[O-])cc1` stands -0.13.
The value for `COC(=O)CN1C(=O)Nc2ccc(Br)cc2C1c1ccccc1Cl` (stereo not drawn) was -0.585; that for `O=C(O)CCN1C(=O)C2CCCCC2C1=O` (stereo not drawn) was 1.58; that for `COc1cc(/C=C/C(=O)c2ccc(NS(=O)(=O)c3ccc(C)cc3)cc2)cc(OC)c1O` was -0.309.
`COC(=O)Nc1ccc(=O)n(Cc2c(Cl)cccc2Cl)c1` returned a z-score of 0.00945.
The value for `CC1=NN(C(=O)Cn2nc([N+](=O)[O-])c(Br)c2C)C(O)(C(F)(F)F)C1` (stereo not drawn) was 0.658; that for `Cc1ccc2cc(CN(CCN3CCCC3)C(=O)Nc3ccccc3)c(=O)[nH]c2c1C` was -0.236.
The value for `CC(=O)c1ccc(NC(=O)Nc2ccc(Cl)cc2)cc1` was -1.17.
Regarding `Cc1ccc(CNC(=O)c2ccc(COc3ccccc3)cc2)cc1`, the z-score was 0.578.
`C(=C\c1ccccc1)/C=N/Nc1nc2ccccc2[nH]1` displayed a z-score of -0.7.
The value for `CC(NC(=O)CCOc1ccccc1)c1ccccc1` (stereo not drawn) was -0.161; that for `CC(O)c1nc2ccc(Cc3ccc4nc(C(C)O)[nH]c4c3)cc2[nH]1` (stereo not drawn) was 0.142; that for `O=C1OCCC1Sc1nnc(-c2ccc(O)cc2)o1` (stereo not drawn) was 0.567.
Under `COc1cc2oc3ccccc3c2cc1N(CC(=O)N1CCCCC1)S(=O)(=O)c1ccc(C)cc1` stands 0.516; under `Cc1cc(C)n(C(=O)c2ccc([N+](=O)[O-])c(Cl)c2)n1`, 0.00234.
In turn, `COc1ccc(CCN(C(=O)c2ccccc2)C2=CC3CCC(C2)N3C)cc1OC` (stereo not drawn) yielded a z-score of 0.0177.
Turning to `CCOC(=O)c1ccc(NC(=O)CSc2nccn2C)cc1`, the z-score worked out at 0.155.
`CN(Cc1cccs1)C(=O)Cc1c[nH]c2ccccc12` returned a z-score of 0.00967.
As to `Cc1nc2c(cnn2-c2ccccc2Cl)c(=O)n1-c1ccc(C(C)C)cc1`, the z-score is -1.26.
The value for `CN(C)c1nc(N/N=C\c2ccc(Cl)c([N+](=O)[O-])c2)nc(Nc2ccc(F)cc2)n1` was 0.137; that for `CCOC(=O)CSc1nnc(NC(=O)c2cccc([N+](=O)[O-])c2)s1` was 0.00484; that for `CC(C)Cn1cc(C(=O)NCCCOC(C)C)c2c3ccccc3n(C)c2c1=O` was -0.486.
For `CCn1c(SCC(=O)Nc2cc(C)on2)nc2c(c1=O)SC(C)C2` (stereo not drawn), the z-score was -0.77.
The value for `CC(C)CC(=O)NC(c1ccccc1Cl)c1c(O)ccc2ccccc12` (stereo not drawn) was -0.161.
Regarding `CCN1CCN(C(=O)CCNC(=O)Cn2ccc3ccccc3c2=O)CC1`, the z-score is 0.0922.
Under `Cc1ccc(-c2csc(N(Cc3ccccc3)C(=O)COc3ccccc3)n2)cc1` stands -0.0539.
`Cc1ccc(N2CC(C(=O)OCc3ccccc3F)CC2=O)cc1` (stereo not drawn) had a z-score of -0.6.
For `Cc1cc(C)c(C(=O)CSc2nc(C)cc(C)c2C(N)=O)c(C)c1`, the z-score worked out at 0.0493.
For `Cc1ccc(S(=O)(=O)Nc2ccc(NC(=O)Nc3ccc(F)cc3F)cc2)cc1`, the z-score is -0.139.
Under `COCCn1nnnc1CN1CCC(NC(=O)c2ccc(Br)cc2)CC1` stands 0.559.
`COc1ccccc1-c1nc(C(F)(F)F)c(OC)o1`: the z-score is -0.631.
Under `CCOC(=O)C1CCN(c2nc3ccccc3nc2C(C#N)C(=O)OCCOC)CC1` (stereo not drawn) stands -0.177.
The value for `Cc1ccc(C(=O)CSc2nnc(-c3ccc4[nH]c(C)c(C)c4c3)o2)cc1C` was -0.088.
Under `CCCCC(CC)CNC(=O)C1CC=CCC1C(=O)O` (stereo not drawn) stands -0.174.
On to `Cc1ccc2c(c1)c(C)c(C)n2CC(O)CN1CCOCC1` (stereo not drawn), for which the z-score stood at 0.188.
The value for `CN(c1cccc(NC(=O)c2ccccc2N(C)S(=O)(=O)c2ccccc2)c1)S(C)(=O)=O` was -0.199; that for `CCC(=O)Nc1cccc2c1C(=O)N(C)C2=O` was -0.0595.
Regarding `COc1cccc(/C=N/n2c(-c3n[nH]c4c3CCC4)n[nH]c2=S)c1O`, the z-score was -0.0945.
The molecule `COC(=O)c1ccccc1NC(=O)CN1C(=O)c2ccccc2S1(=O)=O` had a z-score of -0.461.
Regarding `CC/C(=N\N=C1\SC(C)C(=O)N1Cc1ccco1)c1ccccc1` (stereo not drawn), the z-score was -0.0986.
The value for `Cc1ccnc(N2CCC(C(=O)Nc3nnc(C)s3)CC2)n1` was -0.616.
Under `CCCCC(=O)c1c(O)c2ccccc2oc1=O` stands -0.315; under `CCCCN1C(=O)CC(N2CCOCC2)C1=O` (stereo not drawn), -0.0831.
